The list shows a part of the results. Bounds are passed on as bounds.

The labels stand for the following.
B1: PhoQ; a variant is named by its letters at X, in order, P23837 (parent)
chain: MKKLLRLFFPLSLRVRFLLATAAVVLVLSLAYGMVALIGYSVSFDKTTFRLLRGESNLFYTLAKWENNKLHVELPENIDKQSPTMTLIYDENGQLLWAQRDVPWLMKMIQPDWLKSNGFHEIEADVNDTSLLLSGDHSIQQQLQEVREDDDDAEMTHSVAVNVYPATSRMPKLTIVVVDTIPVELKSSYMVWSWFIYVLSANLLLVIPLLWVAAWWSLRPIEALAKEVRELEEHNRELLNPATTRELTSLVRNLNRLLKSERERYDKYRTTLTDLTHSLKTPLXXLQXXLRSLRSEKMSVSDAEPVMLEQISRISQQIGYYLHRASMRGGTLLSRELHPVAPLLDNLTSALNKVYQRKGVNISLDISPEISFVGEQNDFVEVMGNVLDNACKYCLEFVEISARQTDEHLYIVVEDDGPGIPLSKREVIFDRGQRVDTLRPGQGVGLAVAREITEQYEGKIVAGESMLGGARMEVIFGRQHSAPKDE

In the test the parent is B1. Nature of the test: enrichment ratio after two sorts for PhoP signalling (ratio (wild type AVST 3.29)); higher = more functional. Conditions: with PhoP (E. coli).
Take ICFV: the enrichment ratio is not above 0.25. For the variant RYLH, the enrichment ratio was not above 0.25. As for TDME, the enrichment ratio amounted to 11.5. For KRGH the value was not above 0.25; for EMLE, not above 0.25; for RSCM, not above 0.25. As to PKVM, the enrichment ratio was not above 0.25. For DAEP the value was not above 0.25. PHIY: the enrichment ratio was not above 0.25. Turning to HGRD, the enrichment ratio is not above 0.25.

SPQH: the enrichment ratio is not above 0.25.

Turning to WQTL, the enrichment ratio is not above 0.25.

On to RLMI, for which the enrichment ratio is not above 0.25. For TVQN, the enrichment ratio amounted to 12.1. As for YPIE, the enrichment ratio is not above 0.25. Turning to PNWH, the enrichment ratio is not above 0.25. Turning to FKAS, the enrichment ratio was not above 0.25. Regarding TPNK, the enrichment ratio was not above 0.25. Consider HQRF, for which the enrichment ratio is not above 0.25. For YTWA the value was not above 0.25; for MNQT, not above 0.25; for KKIT, not above 0.25. As for GGYH, the enrichment ratio was not above 0.25. TVRW: the enrichment ratio is not above 0.25. As for DTVC, the enrichment ratio is not above 0.25. For DLHM, the enrichment ratio is not above 0.25.

Regarding IVGW, the enrichment ratio is not above 0.25. Next, YWRI: not above 0.25; DGHS: not above 0.25; GAYN: not above 0.25. For the variant LHSY, the enrichment ratio is not above 0.25. As for IGCN, the enrichment ratio is not above 0.25. Take DQTM: the enrichment ratio is not above 0.25.

For LQDM, the enrichment ratio is not above 0.25.

As to GGPY, the enrichment ratio is not above 0.25. SVQV: the enrichment ratio was not above 0.25.

Consider PMMM, for which the enrichment ratio is not above 0.25.

YQQR: the enrichment ratio is not above 0.25.

On to IYRK, for which the enrichment ratio is not above 0.25. Regarding TFRA, the enrichment ratio is not above 0.25. As for FLMI, the enrichment ratio is not above 0.25. Consider RRNF, for which the enrichment ratio is not above 0.25. Take ASSF: the enrichment ratio was 11.3. Consider RFKP, for which the enrichment ratio is not above 0.25. As for TVQQ, the enrichment ratio worked out at 12.6.

Take SPSK: the enrichment ratio is not above 0.25.

On to RYDG, for which the enrichment ratio is not above 0.25. Turning to WKMS, the enrichment ratio is not above 0.25.

For the variant VFHL, the enrichment ratio was not above 0.25.

For the variant TGQQ, the enrichment ratio is not above 0.25. Next, GQYM: not above 0.25; MPDF: not above 0.25; WSYI: not above 0.25. Regarding PDWP, the enrichment ratio is not above 0.25. Take YMEI: the enrichment ratio is not above 0.25. For FNSC the value was not above 0.25; for NYTV, not above 0.25; for SWWF, not above 0.25. For FQEH the value was not above 0.25; for HIHM, not above 0.25; for CTTT, not above 0.25. For FWDC, the enrichment ratio is not above 0.25. Consider GMRI, for which the enrichment ratio was not above 0.25.

As to HKPL, the enrichment ratio is not above 0.25. Next, NGVW: not above 0.25; TYFA: not above 0.25. As to HYEW, the enrichment ratio was not above 0.25. With GDHP, the enrichment ratio turned out to be 1.16.

For MGMM, the enrichment ratio turned out to be 37.6.

In the case of PSIC, the enrichment ratio is not above 0.25. On to YQFY, for which the enrichment ratio is not above 0.25. LFSE: the enrichment ratio is not above 0.25. As for HRDH, the enrichment ratio is not above 0.25. As for DAYI, the enrichment ratio was not above 0.25.

Take SDDF: the enrichment ratio is not above 0.25. In the case of ATIF, the enrichment ratio was found to be 5.34. Consider PSFC, for which the enrichment ratio is not above 0.25.

Take YDVN: the enrichment ratio was not above 0.25. For the variant IMQK, the enrichment ratio was not above 0.25.

In the case of FLSK, the enrichment ratio is not above 0.25. With TMGT, the enrichment ratio came out at 11.

With LFWI, the enrichment ratio is not above 0.25.

On to QDDG, for which the enrichment ratio was not above 0.25.

YHYP: the enrichment ratio is not above 0.25. In the case of FSFV, the enrichment ratio was not above 0.25. For KKHD, the enrichment ratio is not above 0.25. Regarding RQYF, the enrichment ratio was not above 0.25. Turning to SAGA, the enrichment ratio was not above 0.25. As to FNWE, the enrichment ratio is not above 0.25. As to TVTA, the enrichment ratio worked out at 19.9. For KTNQ, the enrichment ratio is not above 0.25. For MHYR the value was not above 0.25; for WIKW, not above 0.25.

With YDTV, the enrichment ratio was not above 0.25. With RHQA, the enrichment ratio is not above 0.25. With TIQR, the enrichment ratio is 16. Take EVVF: the enrichment ratio is not above 0.25. As to VQRA, the enrichment ratio is not above 0.25.

Take RQPW: the enrichment ratio was not above 0.25. Regarding SEVF, the enrichment ratio worked out at 8.61.

In the case of DNPL, the enrichment ratio is not above 0.25. Next, EKSW: not above 0.25. Turning to HCDI, the enrichment ratio is not above 0.25. Regarding YPEW, the enrichment ratio is not above 0.25. In the case of AASV, the enrichment ratio was determined as 6.86. Take HSQE: the enrichment ratio is not above 0.25. Turning to APVA, the enrichment ratio is not above 0.25. Turning to LLYC, the enrichment ratio was not above 0.25. As for QMRD, the enrichment ratio is not above 0.25. Regarding MNNK, the enrichment ratio was not above 0.25.

As to TRYP, the enrichment ratio is not above 0.25. As to KNMY, the enrichment ratio was not above 0.25.

Regarding GQWC, the enrichment ratio is not above 0.25. As for RASW, the enrichment ratio was not above 0.25. Consider VDDW, for which the enrichment ratio was not above 0.25. In the case of YMIS, the enrichment ratio was not above 0.25. Next, NDCL: not above 0.25. With QEDL, the enrichment ratio was not above 0.25. For DAKD, the enrichment ratio was not above 0.25. For NNMM the value was 17.4; for VSFI, not above 0.25; for YQDN, not above 0.25. For PFEH the value was not above 0.25. For the variant YHHT, the enrichment ratio is not above 0.25. On to FEFI, for which the enrichment ratio was not above 0.25. For TLSV the value was 16.7; for MPIW, not above 0.25; for VIHG, not above 0.25. For HVDW the value was not above 0.25; for GLVY, not above 0.25. Regarding DCWF, the enrichment ratio was not above 0.25.

As to NLGA, the enrichment ratio was not above 0.25. Take ERQS: the enrichment ratio was not above 0.25. For VIRY, the enrichment ratio was not above 0.25. Take QIHW: the enrichment ratio was not above 0.25.

As to HEQV, the enrichment ratio is 25.5. Take DAVN: the enrichment ratio is not above 0.25.

For GGLG, the enrichment ratio came to 3.59. For LWSC, the enrichment ratio is not above 0.25. For FVSC the value was not above 0.25; for SRGT, not above 0.25; for AQSA, 8.52. In the case of YMIT, the enrichment ratio is not above 0.25. Next, KTRL: not above 0.25; LSAW: not above 0.25; DYLF: not above 0.25.

Consider NQVS, for which the enrichment ratio was not above 0.25.

For MGFL, the enrichment ratio worked out at 6.97.

Consider LFAT, for which the enrichment ratio is not above 0.25. As to DTGW, the enrichment ratio is not above 0.25. Next, LNLG: not above 0.25; EVHF: not above 0.25; SFKV: not above 0.25.

These data come from a collection of fitness landscapes (doi:10.1126/science.1257360).
